Laboratory results reported in the antibiotic and cytotoxicity screens of Wong et al. (2023).
The other results are listed elsewhere or left out.

system: S. aureus RN4220; assay: growth inhibition call (relative growth <= 0.2); conditions: 50 µM

Growth inhibition call, inactive:
CC(C)NC(=O)Nc1cccc2c1O[C@@H](CN(C)S(=O)(=O)c1ccc(Cl)cc1)[C@@H](C)CN([C@@H](C)CO)C2=O, Cc1noc(C)c1NC(=O)N(C)C[C@@H]1Oc2ccc(NC(=O)C3CC3)cc2C(=O)N([C@@H](C)CO)C[C@H]1C, CCS(=O)(=O)N1CCn2cc(Cn3cncn3)nc2C1, COc1ccc(S(=O)(=O)Nc2ccc3c(c2)[C@H]2C[C@@H](CC(=O)NCC4CC4)O[C@H](CO)[C@H]2O3)cc1, C[C@@H]1CCCCO[C@@H](CN(C)Cc2ccncc2)[C@@H](C)CN([C@H](C)CO)C(=O)c2cc(NC(=O)Nc3ccc4c(c3)OCO4)ccc2O1
